Source: the supplement of paper PMC12217912
This is one part of the list. Sequences were assembled here from the parent chain. Inactive controls read about 0.05.

B1: TEV protease; numbered along this chain (parent)
chain: MGESLFKGPRDYNPISSSICHLTNESDGHTTSLYGIGFGPFIITNKHLFRRNNGTLVVQSLHGVFKVKDTTTLQQHLVDGRDMIIIRMPKDFPPFPQKLKFREPQREERICLVTTNFQTKSMSSMVSDTSCTFPSGDGIFWKHWIQTKDGQCGSPLVSTRDGFIVGIHSASNFTNTNNYFTSVPKNFMELLTNQEAQQWVSGWRLNADSVLWGGHKVFMVKPEEPFQPVKEATQL

Variants of: B1
Assay: raw area under fraction-flipped curve 0-4 h after induction (AUC4h, not background-subtracted), DNA-recorder readout of cleavage of the substrate (dimensionless); higher = more cleavage of the substrate by the protease variant
Conditions: temperature: 34 °C; time window: 0-4 h after rhamnose induction
Protocol: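 In vivo DNA recorder in E. coli TOP10(DE3) ΔrhaA at 34 °C. Each TEVp single-site mutant (parent TEVp 0) is paired with a single-site variant of the 7-mer TEVs (canonical ENLYFQ|S). The substrate sits between flexible linkers in a Bxb1-sfGFP-TEVs-SsrA fusion, so cleavage stabilises Bxb1 and speeds flipping of a recombination array, read by NGS. The value is the raw area under the fraction-flipped curve over 0-4 h after rhamnose induction (AUC4h), with ≥20 reads per time point. It is not background-subtracted; inactive controls average about 0.047.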
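Also: Bxb1 expression induced with 0.2% (w/v) L-rhamnose at OD600 near 0.5, cultures sampled hourly, flipped fraction per protease–substrate barcode pair counted by paired-end Illumina sequencing.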

| Variant | area with substrate ENCYFQS | area with substrate ENFYFQS | area with substrate ENSYFQS | area with substrate ENDYFQS | area with substrate ENEYFQS | area with substrate ENGYFQS | area with substrate ENHYFQS | area with substrate ENNYFQS | area with substrate ENVYFQS | area with substrate ENWYFQS |
| --- | --- | --- | --- | --- | --- | --- | --- | --- | --- | --- |
| MGESLFKGPRDYNPISSSICHLTNESDGHTTSLYGIGFGPFIITNKHLFRRNNGTLVVQSLHGVFKVKDTTTLQQHLVDGRDMIIIRMPKDFPPFPQKLKFREPQREERICLVTTNFQTKSMSSMVSDTSCTFPSGDGIFWKHWIQTKDGQCGSPLVSTRDGFIVGIHSASNFTNTNNYHTSVPKNFMELLTNQEAQQWVSGWRLNADSVLWGGHKVFMVKPEEPFQPVKEATQL [F180H] | 0.0498 | 0.0637 | 0.0808 | – | – | – | – | – | – | – |
| MGESLFKGPRDYNPISSSICHLTNESDGHTTSLYGIGFGPFIITNKHLFRRNNGTLVVQSLHGVFKVKDTTTLQQHLVDGRDMIIIRMPKDFPPFPQKLKFREPQREERRCLVTTNFQTKSMSSMVSDTSCTFPSGDGIFWKHWIQTKDGQCGSPLVSTRDGFIVGIHSASNFTNTNNYFTSVPKNFMELLTNQEAQQWVSGWRLNADSVLWGGHKVFMVKPEEPFQPVKEATQL [I110R] | 0.0541 | 0.0593 | – | 0.0817 | 0.0604 | 0.0627 | 0.0386 | 0.0505 | 0.0587 | 0.0586 |
| MGESLFKGPRDYNPISSSICHLTNSSDGHTTSLYGIGFGPFIITNKHLFRRNNGTLVVQSLHGVFKVKDTTTLQQHLVDGRDMIIIRMPKDFPPFPQKLKFREPQREERICLVTTNFQTKSMSSMVSDTSCTFPSGDGIFWKHWIQTKDGQCGSPLVSTRDGFIVGIHSASNFTNTNNYFTSVPKNFMELLTNQEAQQWVSGWRLNADSVLWGGHKVFMVKPEEPFQPVKEATQL [E25S] | 0.0764 | – | 0.0755 | 0.0708 | 0.0669 | 0.0524 | 0.0553 | 0.009 | 0.0753 | 0.0501 |
| MGESLFKGPRDYNPISSSICHLTNESDGHTTSLYGIGFGPFIITNKHLFRRNNGTLVVQSLHGVFKVKDTTTLQQHLVDGRDMIIIRMPKDFPPFPQKLKFREPQREERICLVLTNFQTKSMSSMVSDTSCTFPSGDGIFWKHWIQTKDGQCGSPLVSTRDGFIVGIHSASNFTNTNNYFTSVPKNFMELLTNQEAQQWVSGWRLNADSVLWGGHKVFMVKPEEPFQPVKEATQL [T114L] | 0.0887 | 0.0591 | 0.0601 | – | 0.0634 | 0.0507 | – | – | 0.0954 | – |
| MGESLFKGPRDYNPISSSICHLTNESDGHTTSLYGIGFGPFIITNKHLFRRNNGTLVVQSLHGVFKVKDTTTLQQHLVDGRDMIIIRMPKDFPPFPQKLKFREPQREERICLVTTNFQTKSMSSMVSDTSCTFPSGDGIFWKHWIQTKDGQCGSPLVSTRDGFIVGIHSSSNFTNTNNYFTSVPKNFMELLTNQEAQQWVSGWRLNADSVLWGGHKVFMVKPEEPFQPVKEATQL [A170S] | 0.0638 | 0.0621 | 0.0411 | – | – | – | 0.0495 | – | 0.0712 | – |
| MGESLFVGPRDYNPISSSICHLTNESDGHTTSLYGIGFGPFIITNKHLFRRNNGTLVVQSLHGVFKVKDTTTLQQHLVDGRDMIIIRMPKDFPPFPQKLKFREPQREERICLVTTNFQTKSMSSMVSDTSCTFPSGDGIFWKHWIQTKDGQCGSPLVSTRDGFIVGIHSASNFTNTNNYFTSVPKNFMELLTNQEAQQWVSGWRLNADSVLWGGHKVFMVKPEEPFQPVKEATQL [K7V] | 0.0604 | 0.0663 | 0.0628 | 0.0673 | 0.0594 | 0.0695 | – | 0.0646 | – | 0.0645 |
| MGESLFKGPRDYNPISSSICHLTNESDGHTTSLYGIGFGPFIITNKHLFRRNNGTLVVQSLHGVFKVKDTTTLQQHLVDGRDMIIIRMPKDFPPFPQKLKFREPQREERICLVTTNFQTKSMSSMVSDTSCTFPSGDGIFWKHWIQTKDGQCGSPLVSTRDGFIVGIHSASNFTNTNNYFTSVPKNFMELLTNQEAQSWVSGWRLNADSVLWGGHKVFMVKPEEPFQPVKEATQL [Q198S] | 0.0731 | 0.0651 | 0.0535 | 0.0626 | 0.0656 | 0.0608 | 0.0593 | – | 0.0635 | – |
| MGESLFKGPRDYNPISSSICHLTNESDGHTTSLYGIGFGPFIITNKHLFRRNNGTLVVQSLHGVFKVKDTTTLQQHLVDGRDMIIIRMPKDFPPFPQKLKFREPQREERICLVTTNFQTKSMSSMVSDTSCTFPSGDGIFWKHWIQTKDGQCGSPLVSTRDGFIVGIHSASNFTNTNNYFTSVPKNFMELLTNQEAIQWVSGWRLNADSVLWGGHKVFMVKPEEPFQPVKEATQL [Q197I] | 0.0554 | 0.0629 | 0.0554 | 0.0435 | 0.0645 | – | – | 0.0563 | – | – |
| MGESLFKGPRDYNPISSSICHLTNESDGHTTSLYGIGFGPFIITNKHLFRRNNGTLVVQSLHGVFKVKDTTTLQQHLVDGRDMIIIRMPKDFPPFPQKLKFREPQREERICLVTTNFQTKSMSSMVSDTSCTFPSGDGIFWKHWIQTLDGQCGSPLVSTRDGFIVGIHSASNFTNTNNYFTSVPKNFMELLTNQEAQQWVSGWRLNADSVLWGGHKVFMVKPEEPFQPVKEATQL [K148L] | 0.0716 | 0.0516 | 0.0528 | 0.0655 | – | 0.0551 | 0.0595 | 0.0706 | 0.0844 | – |

Same assay, conditions: temperature: 34 °C; time window: 0-4 h after rhamnose induction

| Variant | area with substrate ENIYFQS | area with substrate ENKYFQS | area with substrate ENMYFQS | area with substrate ENRYFQS | area with substrate ENTYFQS | area with substrate ENYYFQS | area with substrate ENPYFQS | area with substrate ENQYFQS | area with substrate ENAYFQS |
| --- | --- | --- | --- | --- | --- | --- | --- | --- | --- |
| MGESLFKGPRDYNPISSSICHLTNSSDGHTTSLYGIGFGPFIITNKHLFRRNNGTLVVQSLHGVFKVKDTTTLQQHLVDGRDMIIIRMPKDFPPFPQKLKFREPQREERICLVTTNFQTKSMSSMVSDTSCTFPSGDGIFWKHWIQTKDGQCGSPLVSTRDGFIVGIHSASNFTNTNNYFTSVPKNFMELLTNQEAQQWVSGWRLNADSVLWGGHKVFMVKPEEPFQPVKEATQL [E25S] | 0.127 | 0.0452 | 0.0893 | 0.0531 | 0.0644 | – | – | – | – |
| MGESLFKGPRDYNPISSSICHLTNESDGHTTSLYGIGFGPFIITNKHLFRRNNGTLVVQSLHGVFKVKDTTTLQQHLVDGRDMIIIRMPKDFPPFPQKLKFREPQREERICLVLTNFQTKSMSSMVSDTSCTFPSGDGIFWKHWIQTKDGQCGSPLVSTRDGFIVGIHSASNFTNTNNYFTSVPKNFMELLTNQEAQQWVSGWRLNADSVLWGGHKVFMVKPEEPFQPVKEATQL [T114L] | 0.133 | – | – | 0.0563 | 0.0705 | 0.0815 | – | – | – |
| MGESLFKGPRDYNPISSSICHLTNESDGHTTSLYGIGFGPFIITNKHLFRRNNGTLVVQSLHGVFKVKDTTTLQQHLVDGRDMIIIRMPKDFPPFPQKLKFREPQREERICLVTTNFQTKSMSSMVSDTSCTFPSGDGIFWKHWIQTKDGQCGSPLVSTRDGFIVGIHSSSNFTNTNNYFTSVPKNFMELLTNQEAQQWVSGWRLNADSVLWGGHKVFMVKPEEPFQPVKEATQL [A170S] | – | – | – | – | – | – | 0.0622 | 0.0602 | – |
| MGESLFVGPRDYNPISSSICHLTNESDGHTTSLYGIGFGPFIITNKHLFRRNNGTLVVQSLHGVFKVKDTTTLQQHLVDGRDMIIIRMPKDFPPFPQKLKFREPQREERICLVTTNFQTKSMSSMVSDTSCTFPSGDGIFWKHWIQTKDGQCGSPLVSTRDGFIVGIHSASNFTNTNNYFTSVPKNFMELLTNQEAQQWVSGWRLNADSVLWGGHKVFMVKPEEPFQPVKEATQL [K7V] | – | – | – | 0.0735 | 0.0636 | 0.0528 | 0.0538 | 0.0602 | – |
| MGESLFKGPRDYNPISSSICHLTNESDGHTTSLYGIGFGPFIITNKHLFRRNNGTLVVQSLHGVFKVKDTTTLQQHLVDGRDMIIIRMPKDFPPFPQKLKFREPQREERICLVTTNFQTKSMSSMVSDTSCTFPSGDGIFWKHWIQTKDGQCGSPLVSTRDGFIVGIHSASNFTNTNNYFTSVPKNFMELLTNQEAQSWVSGWRLNADSVLWGGHKVFMVKPEEPFQPVKEATQL [Q198S] | – | – | – | 0.0545 | 0.0622 | – | – | 0.0599 | 0.0549 |
| MGESLFKGPRDYNPISSSICHLTNESDGHTTSLYGIGFGPFIITNKHLFRRNNGTLVVQSLHGVFKVKDTTTLQQHLVDGRDMIIIRMPKDFPPFPQKLKFREPQREERICLVTTNFQTKSMSSMVSDTSCTFPSGDGIFWKHWIQTKDGQCGSPLVSTRDGFIVGIHSASNFTNTNNYFTSVPKNFMELLTNQEAIQWVSGWRLNADSVLWGGHKVFMVKPEEPFQPVKEATQL [Q197I] | – | – | – | 0.0576 | – | 0.0695 | – | 0.0592 | – |
| MGESLFKGPRDYNPISSSICHLTNESDGHTTSLYGIGFGPFIITNKHLFRRNNGTLVVQSLHGVFKVKDTTTLQQHLVDGRDMIIIRMPKDFPPFPQKLKFREPQREERICLVTTNFQTKSMSSMVSDTSCTFPSGDGIFWKHWIQTLDGQCGSPLVSTRDGFIVGIHSASNFTNTNNYFTSVPKNFMELLTNQEAQQWVSGWRLNADSVLWGGHKVFMVKPEEPFQPVKEATQL [K148L] | 0.101 | – | 0.0893 | 0.0452 | 0.066 | 0.0655 | – | 0.0461 | – |
